This is one part of the list.
System: PfSIP2 AP2 domain 1 (GST-tagged)
Assay: gcPBM binding intensity (ln(normalized median fluorescence intensity)); higher = stronger DNA binding
Method in brief: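 Each value is the highest Masliner-normalised natural-log median intensity across replicate spots of either orientation of a probe. The probes were primer-extended double-stranded 36-bp intergenic genomic sequences on an Agilent 4 × 180k array, alongside negative controls, exposed for 1 h to GST-tagged P. falciparum DNA-binding domains expressed in E. coli. Bound protein was picked up with Alexa488 anti-GST antibody and scanned at 488 nm.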

Sequence	gcPBM binding intensity (ln)
GTATAAAAATTTAGGAGTACAATATATTTATAATAT [XGTACX_site2127]	7.2
TTTTTGTATTCTCCGGACTACATTATGTTGTAAATG [CACACA_negctrl_site691]	6.9
GTAATAAAAAATTAATGTACTTTATATAATATATTA [XGTACX_site5935]	6.95
ACAGAATACATATACACACATACAAAAAAGTGCATA [CACACA_site987]	7.81
TCATACTGTATATTTTGTACTTATATATATATTATA [XGTACX_site6136]	6.99
CATTATGTTGTAAATGCACACATACATATACACAGT [CACACA_site8990]	7.36
TTATTTTGTTTTAAAAGTACACACTTTTAATTAGAT [XGTACX_site2271]	7.07
ATAATAAGCAAACACACACACACAAAAAAAAAAAAA [CACACA_site720]	7.14
TATATAAACACGTACACACACATATAGGTATTTATA [CACACA_site7615]	7.45
TACAAAAGCGATACGGCACACATTTCCTGTTTAAAT [CACACA_site2746]	6.79
AAAAGATTGCTCCGCATGCACCTCCAAAAGTTCCTT [GTGCAC_site9993]	9.92
TTTGCTTCCAAAAGTCGTACAAAAAATATTAAATAT [XGTACX_site4171]	7.04
TAAAAGGAAAAAAAAGCACACACAATATTACTTGAA [CACACA_site8831]	6.89
TATCAAAATTAGTATACACACAAAATTATTCAAATA [CACACA_site2232]	6.83
TATACATATAAATTGTGTACACATATATATATATTT [XGTACX_site7875]	7.13
AATATATAAATTAATACATGCACATATAGAAAGGGA [TGCATGCA_site472]	8.64
CTTTTTACTTAATACACACACACACTAGAAAAAAAA [CACACA_site4680]	7.5
CTTTTCTTTTTTTTTTGTACATAAAATTATTCCTTA [XGTACX_site3924]	7.06
AATATAGTCACACATACACACATATAGATTTATATA [CACACA_site7223]	7.07
TTTTGTTGCTCTTTTTTTTTTTTTTTTAACTGTATG [CACACA_negctrl_site1072]	6.8
AACCAATATGTGTATACACACATAAATATAAATATA [CACACA_site7729]	7.24
AAAAAAAAAAAAAGGTGTACATAAGTAAATTCATAT [XGTACX_site4206]	7.11

Sequence	gcPBM binding intensity (ln)
AATACTATTATTATTGCACACTTATTATCCCTCGGA [CACACA_site4262]	7.1
TATAAAAATATTTCTACACACATTAATATATATATA [CACACA_site1150]	8.62
AATATATAGAGAGATATGCACACTGTATGAATGCAC [CACACA_site2677]	10.3
TATATTAATAATAAGTGTACATATATATATATTTTT [XGTACX_site288]	7.3
TATTTTTTCTTTCATTGTACTTTTTTTTTGTTTTGT [XGTACX_site4081]	6.86
AATGAGAAATATAATTGTACATATATTTATTTTCAT [XGTACX_site3669]	7.04
ATTTGTAAAAAATTCATACACACGTCTTATTTTTAA [CACACA_site1390]	6.86
AAAAAATTAATATTGACACACATTTTTAAGAATAAT [CACACA_site239]	6.73
AAACAAAAAATTTAAAGTACAAAAATTATGATTGTT [XGTACX_site465]	6.98
CAAAAGGATAGGCACACACACACACCCATATATATA [CACACA_site2199]	7.55
AATATGTCTATATTTTTTATATGGAAATATTATAAA [GTGCAC_negctrl_site700]	6.97
TTTTTTTTTTTTTTTTTTTTTTTATCTATTATTTAT [XGTACX_negctrl_site496]	6.97
TATTTATATTTATATACACACATACATATTTATATT [CACACA_site6535]	6.74
TATTTTGTAATAATTACACACGGAATTATAACAGAA [CACACA_site2355]	7.2
TCTTAATTTGTTATATGTACATAATATAATTGTATA [XGTACX_site5184]	7.34
TTATATTAATAAAAAGAAAATCATTTTTTCTTTTAT [CACACA_negctrl_site1595]	6.5
ATATATATATTTATATTTATATGTAAATATCAACGT [TGCATGCA_negctrl_site32]	8.59
ATTGTGTTAATGAAATGTACATTTTCTCTACGTTAA [XGTACX_site1322]	6.89
AATATTATGTATAACCGTACATTATATATATAATAA [XGTACX_site1594]	6.84
TTAAACTTGTTTTGGATGCACTATATAATTCATTTT [GTGCAC_site9549]	8.37
ATTAAAATAATTTAATTTCTTAGACACAATTTGTAA [GTGCAC_negctrl_site331]	6.7
GTGTAAAGGTATTATTGTATTATTCAAAATAAAAAA [CACACA_negctrl_site637]	7.37

Sequence	gcPBM binding intensity (ln)
TCCTACATATTATAGTGTACATTTTCATGTTCATAT [XGTACX_site4308]	7.05
AAGTATTATATATTTTGTACATATATAAAACCACAA [XGTACX_site5508]	7.13
TATATATATATATGTGCACACCAATTGTATGTAATA [CACACA_site3888]	9.59
TCATAAAAGATTAAGTGTACATGTGCTACTCTTATA [XGTACX_site6255]	6.79
AATATAAAATCAAGAAATTAAAAAAAAACAGAAAAC [CACACA_negctrl_site1004]	7.32
ACAAGATAATAGAGAAGTACTAATAAACATACACAA [XGTACX_site6617]	6.97
TATGTTCCTTTTTGTTGTACTGAAAAATTATGTTCA [XGTACX_site3981]	7.28
ATAATATAAATTAATTTACACACTAATAAATATATA [CACACA_site9259]	6.93
ATTTTAAATTTATCTGTGCACAGTATTATATAAGCA [GTGCAC_site9806]	8.24
TATTTTTTATGATTAACACACACACTAATAAAAAAA [CACACA_site9370]	7.43
TATATATATATATATAGTACGCACACATAGTTGCAA [XGTACX_site5875]	9.25
ATTCTTACTAATATCGCACACACATATGTAGACGGG [CACACA_site88]	7.08
ATTTTTTTATTTTTGTGTACTTATAAGAATATTAAT [XGTACX_site4850]	7.41
AATGAATATATTTATTGTACATATATGAATATTGCA [XGTACX_site8689]	7.05
AAAAAAAAAAAAAAAAGTACAAAAAGGAGAAAGATA [XGTACX_site7862]	7.55
ACCCAGTGTATTCATAGTACACGCTCATATATTATC [XGTACX_site423]	6.99
AGGTTTATAAAAAAAAAAAAAAAAAAAAAAAAAAAA [GTGCAC_negctrl_site113]	7
AATATTTAAAACATATGTACTGAAAAACAATTGGAC [XGTACX_site6360]	7.33
CACAAAGGTCTGAAATTTTAGGGGTGCCTGGGACTA [CACACA_negctrl_site681]	8.32
AACAAGTTGCATGGTGCACACATGTATATATATCTA [CACACA_site2548]	11.6
AAAATGTATGTAGTCTGTACAAATACTCTATAAATA [XGTACX_site6475]	6.87
TACAATTTTACTCATAAACACACATATATATGTTAT [CACACA_site9031]	7.05

Sequence	gcPBM binding intensity (ln)
TTATACCTATATTTAACACACATTTGATAAAGTGCC [CACACA_site6732]	6.83
AAAAAATTTGTTTATTGTACAGAAAGAATTATTATA [XGTACX_site6549]	7.04
TTGTAGGTAAATATGTGTACGCATTATTATTCTTAA [XGTACX_site216]	7.61
GAGAGAGAAATAAAAAGTACATACATATATATACAT [XGTACX_site2267]	6.91
TGGAGATTTTTAAAGACACACAGGTAAGAATAATAA [CACACA_site1582]	6.99
ACCATTTTTATGTATAAACACACGTACCCGCACTAA [CACACA_site1604]	8.11
AAAAAAAACAGACACATACACACAAAAATGTTATAA [CACACA_site82]	6.84
AATATATAAATTGACACACACATATATACCTATATA [CACACA_site4803]	7.04
AATATAAACACAAACACACACATATAGATTTATATA [CACACA_site6263]	6.99
CACAATGGTTTATATACACACTGTTGCAAATTCTTC [CACACA_site5659]	6.92
ATTATGCACGGACACACACACACACCCCTAAAAAAT [CACACA_site5426]	7.88
TGTTAACCACAAAAATAAAATAAAATAAAAATAATA [XGTACX_negctrl_site535]	6.89
TGATAAATATTATGTTGTACTTTCTGCCCTTCACAT [XGTACX_site5168]	7.09
TTTCCCATAGGAAAAACACACATATATTATAGATAA [CACACA_site7019]	6.91
TATGCTATTATATATGTACACACCAATTTATTTATA [CACACA_site3918]	7.23
GAGAGAGAAATATGCACACATAAGGGAAATAAATAA [CACACA_site1153]	7.48
GAAAAAAAAAGTTAAGCACACACATGAATAAATAAT [CACACA_site8179]	6.91
TTTTGATGCTTTAAATGTACAAGGGTTCTTATGAAA [XGTACX_site831]	6.97
AAAAAAAAAAAATAGAAAAAAAAATAAAATAAAAAA [CACACA_negctrl_site562]	6.74
TGTATATAATTTATATGTACATATATTTTATTTTGT [XGTACX_site1905]	7.2
AAACCAAAAATAACACGTACAAAAATAAAAAGTATA [XGTACX_site4261]	7.11
AAAACATATTTTAAAAGTACTTGAAAAAAAATTTTC [XGTACX_site3940]	6.9

— the supplement of paper PMC11417369
